Reference: US11198713B2, “Agents modulating beta-catenin functions and methods thereof” (FOG PHARMACEUTICALS, INC., priority 2017, dated 2021)
Not every detail of the peptide structures is certain; ends, links or a residue may be inferred.

Tested on: TCF/LEF Luciferase reporter HEK293 cell lines
Assay: TCF/LEF reporter assay
Assay type: cell-based
Conditions: 10 μM, Table 2

CC[C@H](C)[C@@H]1NC(=O)[C@H](Cc2c[nH]cn2)NC(=O)[C@H](C)NC(=O)[C@H](CCCNC(=NC)NC)NC(=O)[C@H](CC(C)C)NC(=O)[C@H]([C@@H](C)CC)NC(=O)C2(NC(=O)[C@H](C)NC(C)=O)CN(C2)C(=O)OCC=CCCCCCC[C@@](C)(C(=O)N[C@@H](CC(C)C)C(=O)N[C@H](C(=O)N[C@@H](Cc2c[nH]c3ccccc23)C(N)=O)C(C)C)NC1=O [FP0273c, Ac-A-MA-I-L-SDMA-A-H-I-S8-L-V-W-NH2]
TCF/LEF Reporter Inhibition at 10 μM: 4%

CC[C@H](C)[C@@H]1NC(=O)[C@H](Cc2c[nH]cn2)NC(=O)[C@H](C)NC(=O)[C@H](CCCNC(=N)N(C)C)NC(=O)[C@H](CC(C)C)NC(=O)[C@H]([C@@H](C)CC)NC(=O)C2(NC(=O)[C@H](C)NC(C)=O)CN(C2)C(=O)OCC=CCCCCCC[C@@](C)(C(=O)N[C@@H](CC(C)C)C(=O)N[C@H](C(=O)N[C@@H](Cc2c[nH]c3ccccc23)C(N)=O)C(C)C)NC1=O [FP0274c, Ac-A-MA-I-L-ADMA-A-H-I-S8-L-V-W-NH2]
TCF/LEF Reporter Inhibition at 10 μM: 42%

CC[C@H](C)[C@@H]1NC(=O)[C@H](Cc2c[nH]cn2)NC(=O)[C@H](C)NC(=O)[C@H](CCC(N)=O)NC(=O)[C@H](CC(C)C)NC(=O)[C@H]([C@@H](C)CC)NC(=O)C2(NC(=O)[C@H](C)NC(C)=O)CN(C2)C(=O)OCC=CCCCCCC[C@@](C)(C(=O)N[C@@H](CCCNC(=N)N)C(=O)N[C@H](C(=O)N[C@@H](Cc2c[nH]c3ccccc23)C(N)=O)C(C)C)NC1=O [FP0278c, Ac-A-MA-I-L-Q-A-H-I-S8-R-V-W-NH2]
TCF/LEF Reporter Inhibition at 10 μM: 0%

CC[C@H](C)[C@@H]1NC(=O)[C@H](Cc2c[nH]cn2)NC(=O)[C@H](C)NC(=O)[C@H](CC(N)=O)NC(=O)[C@H](CC(C)C)NC(=O)[C@H]([C@@H](C)CC)NC(=O)[C@](C)(NC(=O)[C@H](C)NC(C)=O)CCCCCCC=CCOC(=O)N2CC(C(=O)N[C@@H](Cc3ccc(O)cc3)C(=O)N[C@H](C(=O)N[C@@H](Cc3c[nH]c4ccccc34)C(N)=O)C(C)C)(C2)NC1=O [FP0279c, Ac-A-R8-I-L-N-A-H-I-MA-Y-V-W-NH2]
TCF/LEF Reporter Inhibition at 10 μM: 34%

CC[C@H](C)[C@@H]1NC(=O)[C@H](Cc2c[nH]cn2)NC(=O)[C@H](C)NC(=O)[C@H](Cc2ccc(O)cc2)NC(=O)[C@H](CC(C)C)NC(=O)[C@H]([C@@H](C)CC)NC(=O)C2(NC(=O)[C@H](C)NC(C)=O)CN(C2)C(=O)OCC=CCCCCCC[C@@](C)(C(=O)N[C@@H](CC(N)=O)C(=O)N[C@H](C(=O)N[C@@H](Cc2c[nH]c3ccccc23)C(N)=O)C(C)C)NC1=O [FP0280c, Ac-A-MA-I-L-Y-A-H-I-S8-N-V-W-NH2]
TCF/LEF Reporter Inhibition at 10 μM: 78%

CC[C@H](C)[C@@H]1NC(=O)[C@H](Cc2c[nH]cn2)NC(=O)[C@H](C)NC(=O)[C@H](Cc2ccc(O)cc2)NC(=O)[C@H](CC(C)C)NC(=O)[C@H]([C@@H](C)CC)NC(=O)[C@](C)(NC(=O)[C@H](C)NC(C)=O)CCCCCCC=CCOC(=O)N2CC(C(=O)N[C@@H](CC(N)=O)C(=O)N[C@H](C(=O)N[C@@H](Cc3c[nH]c4ccccc34)C(N)=O)C(C)C)(C2)NC1=O [FP0281c, Ac-A-R8-I-L-Y-A-H-I-MA-N-V-W-NH2]
TCF/LEF Reporter Inhibition at 10 μM: 38%

CC[C@H](C)[C@@H]1NC(=O)[C@H](Cc2c[nH]cn2)NC(=O)[C@H](C)NC(=O)[C@H](CC(N)=O)NC(=O)[C@H](CC(C)C)NC(=O)[C@H]([C@@H](C)CC)NC(=O)C2(NC(=O)[C@H](C)NC(C)=O)CN(C2)C(=O)OCC=CCCCCCC[C@@](C)(C(=O)N[C@@H](Cc2ccc(O)cc2)C(=O)N[C@H](C(=O)N[C@@H](Cc2c[nH]c3ccccc23)C(N)=O)C(C)C)NC1=O [FP0282c, Ac-A-MA-I-L-N-A-H-I-S8-Y-V-W-NH2]
TCF/LEF Reporter Inhibition at 10 μM: 42%

CC[C@H](C)[C@@H]1NC(=O)[C@H](Cc2c[nH]cn2)NC(=O)[C@H](C)NC(=O)[C@H](CCCNC(=NC)NC)NC(=O)[C@H](CC(C)C)NC(=O)[C@H]([C@@H](C)CC)NC(=O)C2(NC(=O)[C@H](C)NC(C)=O)CN(C2)C(=O)OCC=CCCCCCC[C@@](C)(C(=O)N[C@@H](C)C(=O)N[C@H](C(=O)N[C@@H](Cc2c[nH]c3ccccc23)C(N)=O)C(C)C)NC1=O [FP0284c, Ac-A-MA-I-L-SDMA-A-H-I-S8-A-V-W-NH2]
TCF/LEF Reporter Inhibition at 10 μM: 0%

CC[C@H](C)[C@@H]1NC(=O)[C@H](Cc2c[nH]cn2)NC(=O)[C@H](C)NC(=O)[C@H](CC(=O)O)NC(=O)[C@H](CC(C)C)NC(=O)[C@H]([C@@H](C)CC)NC(=O)C2(NC(=O)[C@H](C)NC(C)=O)CN(C2)C(=O)OCC=CCCCCCC[C@@](C)(C(=O)N[C@@H](CCCNC(=N)N)C(=O)N[C@H](C(=O)N[C@@H](Cc2c[nH]c3ccccc23)C(N)=O)C(C)C)NC1=O [FP0285c, Ac-A-MA-I-L-D-A-H-I-S8-R-V-W-NH2]
TCF/LEF Reporter Inhibition at 10 μM: 19%

CC[C@H](C)[C@@H]1NC(=O)[C@H](Cc2c[nH]cn2)NC(=O)[C@H](C)NC(=O)[C@H](CC(N)=O)NC(=O)[C@H](CC(C)C)NC(=O)[C@H]([C@@H](C)CC)NC(=O)C2(NC(=O)[C@H](C)NC(C)=O)CN(C2)C(=O)OCC=CCCCCCC[C@@](C)(C(=O)N[C@@H](CCCNC(=N)N)C(=O)N[C@H](C(=O)N[C@@H](Cc2c[nH]c3ccccc23)C(N)=O)C(C)C)NC1=O [FP0286c, Ac-A-MA-I-L-N-A-H-I-S8-R-V-W-NH2]
TCF/LEF Reporter Inhibition at 10 μM: 0%

CC[C@H](C)[C@@H]1NC(=O)[C@H](Cc2c[nH]cn2)NC(=O)[C@H](C)NC(=O)[C@H](CC(N)=O)NC(=O)[C@H](CC(C)C)NC(=O)[C@H]([C@@H](C)CC)NC(=O)C2(NC(=O)[C@H](C)NC(C)=O)CN(C2)C(=O)OCC=CCCCCCC[C@@](C)(C(=O)N[C@@H](CC2CC2)C(=O)N[C@H](C(=O)N[C@@H](Cc2c[nH]c3ccccc23)C(N)=O)C(C)C)NC1=O [FP0290c, Ac-A-MA-I-L-N-A-H-I-S8-cpa-V-W-NH2]
TCF/LEF Reporter Inhibition at 10 μM: 60%

CC[C@H](C)[C@@H]1NC(=O)[C@H](Cc2c[nH]cn2)NC(=O)[C@H](C)NC(=O)[C@H](CC(=O)O)NC(=O)[C@H](CC(C)C)NC(=O)[C@H]([C@@H](C)CC)NC(=O)[C@](C)(NC(=O)[C@H](C)NC(C)=O)CCCCCCC=CCOC(=O)N2CC(C(=O)N[C@@H](CCC(N)=O)C(=O)N[C@H](C(=O)N[C@@H](Cc3c[nH]c4ccccc34)C(N)=O)C(C)C)(C2)NC1=O [FP0292c, Ac-A-R8-I-L-D-A-H-I-MA-Q-V-W-NH2]
TCF/LEF Reporter Inhibition at 10 μM: 23%

CC[C@H](C)[C@@H]1NC(=O)[C@H](Cc2c[nH]cn2)NC(=O)[C@H](C)NC(=O)[C@H](CC(=O)O)NC(=O)[C@H](CC(C)C)NC(=O)[C@H]([C@@H](C)CC)NC(=O)C2(NC(=O)[C@H](C)NC(C)=O)CN(C2)C(=O)OCC=CCCCCCC[C@@](C)(C(=O)N[C@@H](CCC(N)=O)C(=O)N[C@H](C(=O)N[C@@H](Cc2c[nH]c3ccccc23)C(N)=O)C(C)C)NC1=O [FP0293c, Ac-A-MA-I-L-D-A-H-I-S8-Q-V-W-NH2]
TCF/LEF Reporter Inhibition at 10 μM: 32%

CC[C@H](C)[C@@H]1NC(=O)[C@H](Cc2c[nH]cn2)NC(=O)[C@H](C)NC(=O)[C@H](CCC(N)=O)NC(=O)[C@H](CC(C)C)NC(=O)[C@H]([C@@H](C)CC)NC(=O)[C@](C)(NC(=O)[C@H](C)NC(C)=O)CCCCCCC=CCOC(=O)N2CC(C(=O)N[C@@H](CC(N)=O)C(=O)N[C@H](C(=O)N[C@@H](Cc3c[nH]c4ccccc34)C(N)=O)C(C)C)(C2)NC1=O [FP0295c, Ac-A-R8-I-L-Q-A-H-I-MA-N-V-W-NH2]
TCF/LEF Reporter Inhibition at 10 μM: 36%

CC[C@H](C)[C@@H]1NC(=O)[C@H](Cc2c[nH]cn2)NC(=O)[C@H](C)NC(=O)[C@H](CCC(N)=O)NC(=O)[C@H](CC(C)C)NC(=O)[C@H]([C@@H](C)CC)NC(=O)C2(NC(=O)[C@H](C)NC(C)=O)CN(C2)C(=O)OCC=CCCCCCC[C@@](C)(C(=O)N[C@@H](CC(N)=O)C(=O)N[C@H](C(=O)N[C@@H](Cc2c[nH]c3ccccc23)C(N)=O)C(C)C)NC1=O [FP0296c, Ac-A-MA-I-L-Q-A-H-I-S8-N-V-W-NH2]
TCF/LEF Reporter Inhibition at 10 μM: 64%

CC[C@H](C)[C@@H]1NC(=O)[C@H](Cc2c[nH]cn2)NC(=O)[C@H](C)NC(=O)[C@H](CCC(N)=O)NC(=O)[C@H](CC(C)C)NC(=O)[C@H]([C@@H](C)CC)NC(=O)C2(NC(=O)[C@H](C)NC(C)=O)CN(C2)C(=O)OCC=CCCCCCC[C@@](C)(C(=O)N[C@H](C(=O)N[C@H](C(=O)N[C@@H](Cc2c[nH]c3ccccc23)C(N)=O)C(C)C)[C@@H](C)O)NC1=O [FP0298c, Ac-A-MA-I-L-Q-A-H-I-S8-T-V-W-NH2]
TCF/LEF Reporter Inhibition at 10 μM: 38%

CC[C@H](C)[C@@H]1NC(=O)[C@H](Cc2c[nH]cn2)NC(=O)[C@H](C)NC(=O)[C@H](CCC(N)=O)NC(=O)[C@H](CC(C)C)NC(=O)[C@H]([C@@H](C)CC)NC(=O)[C@](C)(NC(=O)[C@H](C)NC(C)=O)CCCCCCC=CCOC(=O)N2CC(C(=O)N[C@H](C(=O)N[C@H](C(=O)N[C@@H](Cc3c[nH]c4ccccc34)C(N)=O)C(C)C)[C@@H](C)O)(C2)NC1=O [FP0299c, Ac-A-R8-I-L-Q-A-H-I-MA-T-V-W-NH2]
TCF/LEF Reporter Inhibition at 10 μM: 2%

CC[C@H](C)[C@@H]1NC(=O)[C@H](Cc2c[nH]cn2)NC(=O)[C@H](C)NC(=O)[C@H](CC(=O)O)NC(=O)[C@H](CC(C)C)NC(=O)[C@H]([C@@H](C)CC)NC(=O)C2(NC(=O)[C@H](C)NC(C)=O)CN(C2)C(=O)OCC=CCCCCCC[C@@](C)(C(=O)N[C@@H](CC(N)=O)C(=O)N[C@H](C(=O)N[C@@H](Cc2c[nH]c3ccccc23)C(N)=O)C(C)C)NC1=O [FP0300c, Ac-A-MA-I-L-D-A-H-I-S8-N-V-W-NH2]
TCF/LEF Reporter Inhibition at 10 μM: 39%

CC[C@H](C)[C@@H]1NC(=O)[C@H](Cc2c[nH]cn2)NC(=O)[C@H](C)NC(=O)[C@H](CC(N)=O)NC(=O)[C@H](CC(C)C)NC(=O)[C@H]([C@@H](C)CC)NC(=O)C2(NC(=O)[C@H](C)NC(C)=O)CN(C2)C(=O)OCC=CCCCCCC[C@@](C)(C(=O)N[C@@H](CC(C)C)C(=O)N[C@H](C(=O)N[C@@H](Cc2c[nH]c3ccccc23)C(N)=O)C(C)C)NC1=O [FP0302c, Ac-A-MA-I-L-N-A-H-I-S8-L-V-W-NH2]
TCF/LEF Reporter Inhibition at 10 μM: 51%

CC[C@H](C)[C@@H]1NC(=O)[C@H](Cc2c[nH]cn2)NC(=O)[C@H](C)NC(=O)[C@H]([C@@H](C)O)NC(=O)[C@H](CC(C)C)NC(=O)[C@H]([C@@H](C)CC)NC(=O)C2(NC(=O)[C@H](C)NC(C)=O)CN(C2)C(=O)OCC=CCCCCCC[C@@](C)(C(=O)N[C@@H](CC(N)=O)C(=O)N[C@H](C(=O)N[C@@H](Cc2c[nH]c3ccccc23)C(N)=O)C(C)C)NC1=O [FP0306c, Ac-A-MA-I-L-T-A-H-I-S8-N-V-W-NH2]
TCF/LEF Reporter Inhibition at 10 μM: 48%
